The values that follow come from PMC4336329 (PLoS ONE, 2015).

In all, about 310,000 compounds went through this assay and about 2,200 (0.71%) showed an effect of 50% or more. Effects have a minus sign here. The list shows a part of the results.

The target in this experiment is human ether-à-go-go-related gene (hERG) potassium channel (human, UniProt Q12809). The experiment can be described thus: primary screen, population patch clamp on CHO cells stably expressing hERG.
Chain of human ether-à-go-go-related gene (hERG) potassium channel (Q12809 whole entry, looked up): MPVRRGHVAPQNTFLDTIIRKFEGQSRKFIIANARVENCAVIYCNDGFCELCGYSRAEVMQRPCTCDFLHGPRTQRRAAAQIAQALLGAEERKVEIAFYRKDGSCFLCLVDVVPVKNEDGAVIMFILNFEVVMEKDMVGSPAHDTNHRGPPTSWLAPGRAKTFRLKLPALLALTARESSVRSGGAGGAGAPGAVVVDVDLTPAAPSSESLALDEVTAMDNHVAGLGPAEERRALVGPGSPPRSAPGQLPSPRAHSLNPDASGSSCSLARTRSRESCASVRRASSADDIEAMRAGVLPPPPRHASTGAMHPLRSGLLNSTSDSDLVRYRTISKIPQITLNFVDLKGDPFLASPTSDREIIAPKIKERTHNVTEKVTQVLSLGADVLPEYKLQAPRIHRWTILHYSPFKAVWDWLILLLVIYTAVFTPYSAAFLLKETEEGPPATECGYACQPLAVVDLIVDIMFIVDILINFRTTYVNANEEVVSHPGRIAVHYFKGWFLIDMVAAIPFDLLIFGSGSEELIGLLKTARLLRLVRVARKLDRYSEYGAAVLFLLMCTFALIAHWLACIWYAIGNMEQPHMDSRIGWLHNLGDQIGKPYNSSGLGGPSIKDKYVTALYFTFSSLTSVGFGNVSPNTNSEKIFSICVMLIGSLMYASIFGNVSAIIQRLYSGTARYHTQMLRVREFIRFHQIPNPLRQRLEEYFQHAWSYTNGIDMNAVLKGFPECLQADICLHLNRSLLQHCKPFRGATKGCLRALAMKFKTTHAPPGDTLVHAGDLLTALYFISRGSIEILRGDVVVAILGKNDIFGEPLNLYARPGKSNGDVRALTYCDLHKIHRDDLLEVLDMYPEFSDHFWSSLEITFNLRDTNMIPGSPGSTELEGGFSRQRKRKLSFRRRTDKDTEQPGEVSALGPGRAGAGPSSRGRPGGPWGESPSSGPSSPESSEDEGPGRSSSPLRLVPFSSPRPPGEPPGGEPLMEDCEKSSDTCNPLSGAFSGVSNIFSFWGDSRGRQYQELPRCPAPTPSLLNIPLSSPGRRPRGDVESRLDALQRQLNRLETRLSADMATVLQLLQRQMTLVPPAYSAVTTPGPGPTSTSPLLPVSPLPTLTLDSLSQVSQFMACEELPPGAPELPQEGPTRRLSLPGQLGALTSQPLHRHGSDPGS
`COc1ccc(CN(CC(=O)NCCc2ccccc2)C(=O)CCC(=O)Nc2cc(C)ccn2)cc1`: the “hERG current change (%, negative = inhibition) at 1uM” value was -2.12%. For `Cc1ccc(SCC(=O)n2nc(C)cc2C)cc1` the value was 13.6%; for `C[C@H]1CN(Cc2ccccc2)C(=O)[C@@H]1CC(=O)NCc1ccccc1`, 8.69%; for `COc1ccc(OC)c(NS(=O)(=O)c2ccc(Br)s2)c1`, 12.4%. For `O=C(NNC(=O)C(O)c1ccccc1)NC1CCCCC1` (centres unmarked) the value was 17.8%. For `Cc1ccsc1/C=N/Nc1nc(Cl)c(Cl)cc1Cl` the value was 8.9%; for `COCCN(C(=S)Nc1ccccc1C)C(C)c1cccs1` (centres unmarked), 2.07%; for `COc1cccc(CNS(=O)(=O)c2ccc(-n3cnnn3)c(C)c2)c1`, 3.48%. As for `COc1ccc(-n2c(=O)[nH]cc(C(=O)N3CCCc4ccccc43)c2=O)cc1`, the “hERG current change (%, negative = inhibition) at 1uM” value is 5.42%. Then `O=C(Nc1ccccc1)c1ccc(=O)[nH]n1`, with 12.2%; and `COc1cccc(NC(=O)CCC2CCN(C(=O)c3cccc(NC(C)=O)c3)CC2)c1`, with 1.88%. Then `Cc1c(Cl)cccc1NC(=O)Nc1ccc(C(=O)N2CCCC2)cc1`, with 1.01%; and `COc1cccc(CC(=O)OCC(=O)NC(=O)c2ccc(OC(F)F)cc2)c1`, with 7.13%; and `CCOC(=O)c1ccc(NC(=O)c2ccc(NS(C)(=O)=O)cc2)cc1`, with 1.06%.

Consider `COc1ccc(NC(=O)CN(C)C(=O)Cc2ccc(-c3ccccc3)cc2)cc1`, for which the “hERG current change (%, negative = inhibition) at 1uM” value is 7.26%. Then `Cc1cccc(C)c1OCC(O)Cn1c2ccccc2c2ccccc21` (centres unmarked), with -1.28%.

In the case of `C=CCOC(=O)C1=C(C)NC(=O)NC1c1ccc(OC(=O)c2ccco2)c(OC)c1` (centres unmarked), the “hERG current change (%, negative = inhibition) at 1uM” value stood at 7.21%. For `COc1cc(OC)c(OC)cc1/C=C1\CC(C)C/C(=C\c2cc(OC)c(OC)cc2OC)C1=O` (centres unmarked) the value was 8.41%. Regarding `CC(C)CN(C(=O)CN(C)C(=O)Cc1ccccc1Cl)c1c(N)n(CC(C)C)c(=O)[nH]c1=O`, the “hERG current change (%, negative = inhibition) at 1uM” value is reported as 12.6%.

Consider `COc1ccccc1NC(=O)c1cnc(SC)nc1`, for which the “hERG current change (%, negative = inhibition) at 1uM” value came out at 20.8%. For `COC(=O)N/N=C\c1c(C)nn(-c2ccccc2)c1Cl` the value was 2.26%.

Consider `Cc1ccc2nc(SCC(=O)NCc3ccco3)nc(=O)n2c1`, for which the “hERG current change (%, negative = inhibition) at 1uM” value is on record as 11.3%. Consider `CNC(=S)N1N=C(c2ccccc2)CC1c1ccccc1Cl` (centres unmarked), for which the “hERG current change (%, negative = inhibition) at 1uM” value is -0.326%. On to `CCOC(=O)/C=C/c1ccc2c(c1)S(=O)(=O)N(c1cccc(OC)c1)[C@H]2CC(=O)OCC`, for which the “hERG current change (%, negative = inhibition) at 1uM” value was 4.72%.

For the compound `COc1cccc(CNC(=O)COc2cc3c(c4oc(=O)cc(C)c24)CCC(C)(C)O3)c1`, the “hERG current change (%, negative = inhibition) at 1uM” value is 7.83%. For `C(=N\c1nc2ccccc2n1Cc1ccccc1)/c1cccs1` the value was 9.2%; for `O=C(NCc1ccco1)c1sc(=S)n2c1[nH]c(=O)c1ccccc12`, -4.07%. For `COC(=O)C1=C(C)Nc2[nH]c(=S)[nH]c(=O)c2C1c1ccc(O)cc1` (centres unmarked) the value was 12.5%; for `O=C(O)C1=C[C@@H](c2ccc(Br)cc2)C[C@@H](OCc2ccc(CO)cc2)O1`, 8.37%. For `COCCn1c(C)cc(C(=O)CSc2nc3ccccc3s2)c1C` the value was 6.88%; for `Cc1ccc(NC2CCCN(C(=O)CCCN3CCCCC3=O)C2)cc1C` (centres unmarked), 13.1%; for `CC(C)CN(C(=O)c1ccc(S(=O)(=O)N2CCOCC2)cc1)C1CCS(=O)(=O)C1` (centres unmarked), 10.8%. With `Fc1ccc(NC(=S)N2CCOCC2)cc1Cl`, the “hERG current change (%, negative = inhibition) at 1uM” value was determined as 16.5%. `CC(C(=O)N(C)C)N(C#N)c1nc(N(C)C)nc(N(C)C)n1` (centres unmarked): the “hERG current change (%, negative = inhibition) at 1uM” value came out at 0.182%. For `Cc1cc(NC(=O)CSc2nc3ccccc3c(=O)n2CCCC(=O)NCc2ccccc2)n[nH]1` the value was -0.078%; for `COc1cc(/C=C(\C#N)C(=O)Nc2cccc(C(=O)O)c2)ccc1OCc1ccc(F)cc1`, 9.03%. In the case of `Cc1cccc(NC(=S)NNC(=O)CC(C)O)c1C` (centres unmarked), the “hERG current change (%, negative = inhibition) at 1uM” value is given as 10.2%. For `CCOC(=O)N1CCN(Cc2nc(-c3ccc(OC)cc3)no2)CC1`, the “hERG current change (%, negative = inhibition) at 1uM” value is -3.72%.

In the case of `COC(=O)C1CCN(C(=O)COC(=O)c2ccc3[nH]c4c(c3c2)CCCC4)CC1`, the “hERG current change (%, negative = inhibition) at 1uM” value is 8%. Then `Nc1ccc(Nc2ccc([N+](=O)[O-])cc2[N+](=O)[O-])cc1`, with -5.55%; and `COc1cc(-c2nnc3n2N=C(c2ccccc2)CS3)cc(OC)c1OC`, with 0.878%; and `COc1cccc(-n2nc(C(N)=O)c(O)cc2=O)c1`, with 2.65%. Turning to `Cc1csc(=O)n1CCC(=O)OCC(=O)Nc1cc([N+](=O)[O-])ccc1Cl`, the “hERG current change (%, negative = inhibition) at 1uM” value is recorded as 2.34%.

Take `O=C(CCN1C(=O)C2C3CCC(C3)C2C1=O)Nc1ccccc1C(F)(F)F` (centres unmarked): the “hERG current change (%, negative = inhibition) at 1uM” value is on record as 6.67%. Then `C#CCOCCOCCOCCNc1nc(N2CCN(C(=O)[C@H]([C@@H](C)O)n3cc(CCCC[NH3+])nn3)CC2)nc(N2CCN(C(=O)[C@H]([C@@H](C)CC)n3cc(CCC[NH+]=C(N)N)nn3)CC2)n1.[Cl-]`, with 13.6%; and `CN(C)C(CNC(=O)c1ccc2c(c1)S(=O)(=O)c1ccccc1C2=O)c1ccco1` (centres unmarked), with 4.18%; and `CCc1cc(Cn2nc(C(=O)O)cc2-c2ccccc2)on1`, with 13.5%. As to `COc1cccc(C2C3=C(CCCC3=O)Nc3[nH]n(-c4ccccc4)c(=O)c32)c1` (centres unmarked), the “hERG current change (%, negative = inhibition) at 1uM” value stood at 13.1%. For `COc1ccc(Nc2ccc(S(=O)(=O)N3CCCCC3)cc2[N+](=O)[O-])cc1OC` the value was 5.87%; for `Cc1nn(CC(=O)NCCCN2CCCCC2)c(=O)c2cc(-c3ccccc3)nn12`, -6.31%. Then `COc1cccc(Oc2cncnc2-c2ccc(OC)cc2O)c1`, with 5.14%; and `CC(C)CN(CCC(=O)O)CC(C)C`, with 6.16%; and `CN1CC(C(=O)c2ccc(Cl)cc2)C(c2ccc(N(C)C)cc2)C1` (centres unmarked), with -23.4%. For `CCCC(=O)Nc1ccc(Cl)c(NC(=S)NC(=O)c2ccco2)c1` the value was 14.5%; for `Cc1ccccc1NC(=O)c1ccc(C)c(S(=O)(=O)Nc2ccccn2)c1`, 12.8%. With `Cc1ccc(OCc2ccc(C#N)cc2)c(C(=O)c2cc(C#N)c(=O)n(C3CC3)c2)c1`, the “hERG current change (%, negative = inhibition) at 1uM” value was 2.14%.

For `C=CCN1C(=O)c2ccc(C(=O)N(C)CC(=O)Nc3ccccc3Br)cc2C1=O`, the “hERG current change (%, negative = inhibition) at 1uM” value was determined as 8.42%. Consider `CC(=O)Oc1ccc(-c2csc(Nc3cccnc3)n2)cc1`, for which the “hERG current change (%, negative = inhibition) at 1uM” value is reported as -6.85%. For the compound `CCOc1ccc(CN(CC)C(=O)Cc2c[nH]c3ccccc23)cc1OC`, the “hERG current change (%, negative = inhibition) at 1uM” value was 8.36%. For `Cc1ccc(S(=O)(=O)Nc2cc(=O)[nH]c(SCC(=O)Nc3cccc(C)c3)n2)cc1` the value was 7.46%. Then `CCC1(CC)NC(=S)N(Nc2ccccc2)C1=O`, with 7.94%. For `CN(C)S(=O)(=O)c1ccc2c(c1)nc(CCC(=O)NCC1CCCCC1)n2C` the value was -1.12%. Take `COc1ccc(N2CCN(C(=O)CS(=O)Cc3nc(-c4ccc(OC)c(OC)c4)oc3C)CC2)cc1` (centres unmarked): the “hERG current change (%, negative = inhibition) at 1uM” value is given as 20.4%. For `CCN(C(=O)CSc1nnnn1-c1ccccc1OC)C1CCS(=O)(=O)C1` (centres unmarked) the value was 22%; for `O=C(CCn1c(=S)oc2ccccc21)NC1CCCCCC1`, 12.1%. Take `Cc1ccc(NC(=O)c2cc3ccccc3cc2O)cc1`: the “hERG current change (%, negative = inhibition) at 1uM” value came out at 12%. Consider `Cc1nc2cc(OCc3cc(C(=O)NC(C)c4cnn(C)c4)no3)ccc2s1` (centres unmarked), for which the “hERG current change (%, negative = inhibition) at 1uM” value was 9.19%.

For `O=C(O)CCCCNCc1ccccc1`, the “hERG current change (%, negative = inhibition) at 1uM” value came out at 15.5%.

`Cc1sc2nc(SCC(=O)NCc3ccco3)n(CCc3ccccc3)c(=O)c2c1C`: the “hERG current change (%, negative = inhibition) at 1uM” value is given as 14.4%.

For the compound `CCOc1cc(/C=C2\C(=N)N3N=C(C)SC3=NC2=O)ccc1OCCOc1cccc(OC)c1`, the “hERG current change (%, negative = inhibition) at 1uM” value was found to be 6.85%. For `[N-]=[N+]=NC1CC(CO)OC1n1ccc(=O)[nH]c1=O` (centres unmarked) the value was 9.48%. With `O=C(CSc1nnc(-c2ccccn2)o1)Nc1ccccc1C(F)(F)F`, the “hERG current change (%, negative = inhibition) at 1uM” value was 15.8%. Regarding `CCCCCn1c(=O)[nH]c2cc(C(=O)Nc3ccc(OC)cc3)ccc2c1=O`, the “hERG current change (%, negative = inhibition) at 1uM” value stood at 10.8%. On to `CN(CC1CCOCC1)C(=O)CC1C(=O)NCCN1Cc1ccc(Cl)c(F)c1` (centres unmarked), for which the “hERG current change (%, negative = inhibition) at 1uM” value is 11.1%.

Turning to `COc1ccc(C(=O)c2nc3c(n2O)CCCCC3)cc1`, the “hERG current change (%, negative = inhibition) at 1uM” value is -16.7%.

As to `Cc1ccc(C)c(NC(=O)CSc2n[nH]c(-c3ccncc3)n2)c1`, the “hERG current change (%, negative = inhibition) at 1uM” value turned out to be 11%. For `Cc1ccc(NC(=O)CSCC(=O)Nc2sccc2C#N)cc1`, the “hERG current change (%, negative = inhibition) at 1uM” value was 7.83%. `CCn1c(=O)cc(SCC(=O)N(C)Cc2ccccc2)c2ccccc21`: the “hERG current change (%, negative = inhibition) at 1uM” value is recorded as 0.218%. With `CCCc1noc2c1/C(=N\O)CCC2`, the “hERG current change (%, negative = inhibition) at 1uM” value was found to be 1.64%. Turning to `COCCCNC(=S)N1CCC(C(=O)c2ccc3c(c2)OCCO3)CC1`, the “hERG current change (%, negative = inhibition) at 1uM” value is -0.197%. For `CCN1/C(=C/C(C)=C/c2sc3ccccc3[n+]2CC)Sc2ccccc21.[I-]` the value was 10.6%; for `Cc1c(C(c2cccc([N+](=O)[O-])c2O)c2c(C)n(C)n(-c3ccccc3)c2=O)c(=O)n(-c2ccccc2)n1C`, 2.29%. Then `Clc1cccc(Cl)c1Cn1nnc(-c2cccs2)n1`, with 4.62%; and `COc1ccc(CN2C(=O)NC3(CCCCC3)C2=O)cc1F`, with 4.07%; and `Cc1noc(C)c1CSCC(=O)Nc1nc2ccc(F)cc2s1`, with 6.79%. As to `O=C(CNC(=O)C1CCCCC1)OCn1nnc2ccccc2c1=O`, the “hERG current change (%, negative = inhibition) at 1uM” value is 6.85%.
